# Hit rate of the full screen: of about 350,000 compounds, about 9,900 (2.8%) were called active. The shares of active, inactive and inconclusive entries below differ from those in the screen. Calls come from the whole dose curve; as a rule, active = well fitted activation curve with a large enough effect; inconclusive = small, poorly fitted or top-dose-only effect; inactive = no such curve, though single readings can be large or run the other way. Potencies of inconclusive entries are left out as doubtful fits.
# Assay: A quantitative high throughput screen for small molecules that induce DNA re-replication in MCF 10a normal breast cells. For activity, positive = re-replication: % of control where 0% means no effect. Note: nearly all actives have a fitted effect of over 50% in size.
# Conditions: MCF 10A DNA re-replication, Hoechst nuclear intensity, 48 h; activity, positive = re-replication: at 46.1 µM (top of the series)
# Potency is the fitted concentration of half-maximal effect; tags give direction and shape of the fitted curve.
SMILES,"activity, positive = re-replication",Potency
CC(C)(C)OC(=O)C[C@@H]1C/C=C\C[C@@H](CC(=O)N[C@@H](CO)Cc2ccccc2)C(=O)N2CCC[C@H]2COC1=O,inactive: 3.69%,–
Cc1ccccc1N1CCN(C2=NC(=O)/C(=C\c3cccs3)S2)CC1,–,active: 6.51 µM
COC(=O)c1cc(NC(=O)CN2C(=O)C(=O)N(C3CCCC3)C2=O)cc(C(=O)OC)c1,–,"inconclusive [activator, single point]"
CC(=O)Nc1ccc(NC(=O)Cn2ccc([N+](=O)[O-])n2)cc1,inactive: 12.3%,–
O=C(Cc1n[nH]c(=O)[nH]c1=O)N/N=C/CCc1ccccc1,inactive: 3.48%,–
COc1ccc(C(=O)Nc2ccc(O)c3c(=O)cc(-c4cccc(Cl)c4)oc23)cc1,–,"inconclusive [activator, single point]"
O=C(Nc1cccc2ncccc12)c1cc([N+](=O)[O-])ccc1Cl,–,"inconclusive [activator, single point]"
Cc1occc1C(=O)Nc1cc(S(=O)(=O)N2CCOCC2)ccc1OC(C)C,–,"inconclusive [activator, partial curve, poor fit]"
CC(C(=O)Nc1ccc(F)cc1Cl)N(C)CCOc1ccccc1 (stereo unspecified),–,"inconclusive [activator, single point]"
COc1ccc(-n2c(SCC(=O)N3CCc4ccccc43)nnc2-c2c[nH]c3ccccc23)cc1,inactive: -2.17%,–
O=C(CSc1nncs1)N1c2ccccc2Sc2ccccc21,–,active: 8.2 µM
CC(=O)Nc1ccc(OCC(O)Cn2c3ccccc3c3ccccc32)c(C)c1 (stereo unspecified),inactive: 44.2%,–
COc1cccc(C(=O)Nc2nc3c(s2)CN(C)CC3)c1,inactive: -2.49%,–
O=S(=O)(c1ccccc1F)N1CCN(CC(O)c2ccccc2)CC1 (stereo unspecified),–,"inconclusive [activator, single point]"
NC(=O)Cn1nc(C(F)(F)F)c2c1CCCC2,inactive: -2.92%,–
COc1ccc2nc(NC(=O)c3cccc(S(=O)(=O)N4CCOCC4)c3)sc2c1,–,"inconclusive [activator, single point]"
COc1ccc(C(=O)NCC(O)CN2CCOCC2)cc1[N+](=O)[O-] (stereo unspecified),inactive: 10.4%,–
COc1ccc(Cl)cc1NCC(=O)Nc1ccc(OC)c(S(=O)(=O)N2CCCCC2)c1,inactive: 0.0357%,–
Cc1ccc(NC(=O)CNC(c2ccccc2)c2ccccc2)c(F)c1,–,"inconclusive [activator, single point]"
COc1ccc2oc(/C=C/N(C)C)c(C(=O)c3ccc(Cl)cc3)c2c1,–,active: 6.31 µM
Cc1cc(OCC(=O)Nc2ccc(S(=O)(=O)NC3=NCCCCC3)cc2)c(C(C)C)cc1Cl,–,"inconclusive [activator, single point]"

# From PubChem BioAssay AID624296 (National Center for Advancing Translational Sciences (NCATS), 2012)
